Assay results taken from publication PMC8481267.
Where two headings read alike, the source gives them in different places. These are yes or no findings as the source states them, for the method shown. In cells and extracts the contact can be indirect. Some entries that bind do so weakly or less than the wild type. One block for each molecule: values may come before it.

Chains of the proteins cited; added tags and fusions are not shown. Lines headed by an entry give the natural chain unless they say otherwise; changes in a name come on top. A line that says so, or that is headed by a name, gives the form on record, which may keep a tag or linker. Residues count along the entry.
UniProt Q14258: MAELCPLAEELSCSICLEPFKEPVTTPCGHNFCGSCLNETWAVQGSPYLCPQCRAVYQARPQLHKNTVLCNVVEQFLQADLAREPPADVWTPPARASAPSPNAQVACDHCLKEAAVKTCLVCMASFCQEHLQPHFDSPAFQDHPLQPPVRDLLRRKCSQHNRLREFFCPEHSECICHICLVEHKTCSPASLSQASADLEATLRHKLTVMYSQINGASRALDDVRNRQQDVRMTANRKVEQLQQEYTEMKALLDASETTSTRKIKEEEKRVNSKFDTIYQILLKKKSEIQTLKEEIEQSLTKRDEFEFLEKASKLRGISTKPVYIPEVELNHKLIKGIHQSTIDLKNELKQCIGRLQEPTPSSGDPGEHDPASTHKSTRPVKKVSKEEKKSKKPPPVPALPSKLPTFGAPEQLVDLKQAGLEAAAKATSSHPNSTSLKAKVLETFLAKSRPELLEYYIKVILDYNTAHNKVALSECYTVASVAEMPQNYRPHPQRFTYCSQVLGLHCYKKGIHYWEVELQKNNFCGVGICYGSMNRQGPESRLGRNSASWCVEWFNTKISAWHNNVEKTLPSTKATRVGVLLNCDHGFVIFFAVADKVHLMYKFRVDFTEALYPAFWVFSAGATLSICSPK
His-tagged TRIM25 with the SPRY domain deleted: residues 1-388 of Q14258
UniProt Q9Y572: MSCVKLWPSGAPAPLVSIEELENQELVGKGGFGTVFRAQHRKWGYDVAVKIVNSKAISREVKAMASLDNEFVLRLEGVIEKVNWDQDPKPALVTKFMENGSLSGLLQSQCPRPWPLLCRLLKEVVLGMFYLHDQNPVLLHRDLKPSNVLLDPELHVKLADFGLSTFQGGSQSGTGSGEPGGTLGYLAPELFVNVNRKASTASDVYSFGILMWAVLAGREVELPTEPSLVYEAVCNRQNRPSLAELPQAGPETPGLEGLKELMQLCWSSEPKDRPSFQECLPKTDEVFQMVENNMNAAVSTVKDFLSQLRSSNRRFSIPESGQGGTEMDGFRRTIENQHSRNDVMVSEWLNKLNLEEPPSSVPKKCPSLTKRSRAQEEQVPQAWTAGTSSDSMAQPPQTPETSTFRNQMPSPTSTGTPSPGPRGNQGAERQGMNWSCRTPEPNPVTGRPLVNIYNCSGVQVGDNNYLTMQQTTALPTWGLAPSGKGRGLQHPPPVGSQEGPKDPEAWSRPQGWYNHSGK
GFP-tagged RIP3 kinase domain: residues 21-287 of Q9Y572
UniProt Q13546: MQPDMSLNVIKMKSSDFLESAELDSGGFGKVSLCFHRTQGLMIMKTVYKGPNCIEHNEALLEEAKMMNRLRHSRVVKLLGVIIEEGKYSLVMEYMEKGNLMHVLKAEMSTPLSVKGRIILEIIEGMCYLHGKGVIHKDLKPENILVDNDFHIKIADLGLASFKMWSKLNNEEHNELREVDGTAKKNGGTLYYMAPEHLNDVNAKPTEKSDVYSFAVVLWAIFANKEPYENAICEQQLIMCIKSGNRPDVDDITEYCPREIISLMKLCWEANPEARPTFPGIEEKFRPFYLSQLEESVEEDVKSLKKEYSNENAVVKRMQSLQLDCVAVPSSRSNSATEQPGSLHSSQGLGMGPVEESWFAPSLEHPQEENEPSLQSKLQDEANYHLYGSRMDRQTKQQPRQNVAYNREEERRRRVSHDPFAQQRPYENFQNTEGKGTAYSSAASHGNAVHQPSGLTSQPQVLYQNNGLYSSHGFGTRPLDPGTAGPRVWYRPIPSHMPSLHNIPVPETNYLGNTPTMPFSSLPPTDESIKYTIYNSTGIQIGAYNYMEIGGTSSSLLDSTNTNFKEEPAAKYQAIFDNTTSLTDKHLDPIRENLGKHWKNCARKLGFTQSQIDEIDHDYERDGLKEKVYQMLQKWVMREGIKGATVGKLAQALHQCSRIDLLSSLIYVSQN

Legend:
[1] = biological target: endogenous TRIM25 (human (endogenous in HeLa, HEK293T, HT-29)) (UniProt Q14258); experiment: co-IP; endogenous proteins in HT-29 cells; immunoprecipitation with TRIM25 or RIP3 antibodies; untreated or primed with TNF/Z-VAD/Smac-mimetic (TSZ) for indicated hours (6 h in Fig. 1g); IP buffer 1% NP-40, 150 mM NaCl, 1 mM EDTA, 50 mM Tris-HCl pH 7.5
[2] = biological target: His-tagged TRIM25 with the SPRY domain deleted (human) (UniProt Q14258); experiment: co-IP; His-tagged TRIM25 or its mutants and GFP-tagged RIP3 co-transfected into HeLa cells; lysates immunoprecipitated with an anti-His antibody
[3] = biological target: His-tagged TRIM25 (human) (UniProt Q14258); experiment: as above
FLAG-tagged RIP3 (human) [4] = biological target: FLAG-tagged RIP3 (human) (UniProt Q9Y572); experiment: co-IP; FLAG-tagged RIP3 transfected into HeLa and HEK293T cells; immunoprecipitation with the RIP3 antibody, blot with TRIM25 and RIP3 antibodies; IP buffer 1% NP-40, 150 mM NaCl, 1 mM EDTA, 50 mM Tris-HCl pH 7.5, overnight at 4 °C
[5] = biological target: GFP-tagged RIP3 kinase domain (human) (UniProt Q9Y572); experiment: co-IP; GFP-tagged RIP3 or its mutants transfected into HEK293T cells; lysates immunoprecipitated with an anti-GFP antibody
[6] = biological target: GFP-tagged RIP3 (full-length) (human) (UniProt Q9Y572); experiment: as above
FLAG-tagged RIP3 (human) [7] = biological target: FLAG-tagged RIP3 (human) (UniProt Q9Y572); experiment: co-IP; FLAG-tagged RIP3 co-transfected with Myc-tagged TRIM25 or TRIM25^CS into HeLa cells, treated with 10 uM MG132; the precipitating antibody is not stated
[8] = biological target: endogenous TRIM25 (human (endogenous in HeLa, HEK293T, HT-29)) (UniProt Q14258); experiment: co-IP; endogenous proteins in HT-29 cells; immunoprecipitation with TRIM25 or RIP3 antibodies; untreated or primed with TNF/Z-VAD/Smac-mimetic (TSZ) for indicated hours (6 h in Fig. 1g); IP buffer 1% NP-40, 150 mM NaCl, 1 mM EDTA, 50 mM Tris-HCl pH 7.5; remark: listed apart in the source

binding [1]: binds
Molecule: endogenous RIP3 (from UniProt Q9Y572 1-518)

binding (FLAG-tagged RIP3 (human) [4]): binds | binding [5]: no binding | binding [6]: binds
Molecule: endogenous TRIM25 (from UniProt Q14258 1-630)

binding [8]: no binding
B1: endogenous MLKL (protein, UniProt Q8NB16 1-471)
chain: MENLKHIITLGQVIHKRCEEMKYCKKQCRRLGHRVLGLIKPLEMLQDQGKRSVPSEKLTTAMNRFKAALEEANGEIEKFSNRSNICRFLTASQDKILFKDVNRKLSDVWKELSLLLQVEQRMPVSPISQGASWAQEDQQDADEDRRAFQMLRRDNEKIEASLRRLEINMKEIKETLRQYLPPKCMQEIPQEQIKEIKKEQLSGSPWILLRENEVSTLYKGEYHRAPVAIKVFKKLQAGSIAIVRQTFNKEIKTMKKFESPNILRIFGICIDETVTPPQFSIVMEYCELGTLRELLDREKDLTLGKRMVLVLGAARGLYRLHHSEAPELHGKIRSSNFLVTQGYQVKLAGFELRKTQTSMSLGTTREKTDRVKSTAYLSPQELEDVFYQYDVKSEIYSFGIVLWEIATGDIPFQGCNSEKIRKLVAVKRQQEPLGEDCPSELREIIDECRAHDPSVRPSVDEILKKLSTFSK

The next lines start with the molecule.

Molecule: endogenous RIP1 (from UniProt Q13546 1-671)
binding [1]: no binding

Molecule: GFP-tagged RIP3 (full-length) (from UniProt Q9Y572 1-518)
binding [2]: no binding | binding [3]: binds

Molecule: Myc-tagged TRIM25 C50S/C53S (from UniProt Q14258 1-630)
binding (FLAG-tagged RIP3 (human) [7]): binds

Molecule: Myc-tagged TRIM25 (from UniProt Q14258 1-630)
binding (FLAG-tagged RIP3 (human) [7]): binds
